The source gives no read counts; variants with many changes may rest on few reads.
B1: LINE1-mini (parent)
chain: GGCAGAGCUCAACACAGCGUGGCAAAGUGGCUGUGGCUAGACUGCC

Variants of: B1
Assay: self-cleavage, relative activity (ratio to wild type); higher = more cleavage; in vitro, sequencing; the parent is a self-cleaving ribozyme

Row | Variant | self-cleavage
1 | GGCAGAGCUCAUCACAGCGUGGCAAAGUGGCUGUGGUUAGACUGUC [A12U C37U C45U] | 0.01
2 | GACAGAGCUCAACACAGCGUUGCAAAUCGGGUGUGGCUAGACUGCC [G2A G21U G27U U28C C31G] | 0.16
3 | GGGAGAGCUCAACACAGCGUGGCAAAGUGGCUGGGGCUAGACAGCC [C3G U34G U43A] | 0.03
4 | GGCAGACCUCAAUACAGCGUGGCAAAGUGGCUGUGGCAAAACUGCC [G7C C13U U38A G40A] | 0.06
5 | GGCAGAGCUCAAAACAGCGCGUCAAAGUGGCUGUGGCUCGACUGCC [C13A U20C G22U A39C] | 0.02
6 | GCCAGAGCUCAACCCAGCGUGGCAAAGUGACUGUGUCUAGACUGCC [G2C A14C G30A G36U] | 0.33
7 | GGCAUAGCUCAACACAGCGCGGCAGAGUGGCUGUGGCUAGACUGCU [G5U U20C A25G C46U] | 0.06
8 | AGCAGAGCUCAACACUGCGUGACAUAGUGGCUGUGGCUAGACUGCC [G1A A16U G22A A25U] | 0.08
9 | GGAGGAGCUCAACGUAGCGUGGCAAAGGGGCUGUGGCUAGACUGCC [C3A A4G A14G C15U U28G] | 0.02
10 | GGCUGAGCUCGACACAGCGUGGCAAAGUGGCUGUGGCUAGAUUGCC [A4U A11G C42U] | 0.02
11 | AGUAGAGCUCAAUACAGCGUGGCAAAGUGGCUGUGGCUAGACUGCC [G1A C3U C13U] | 0.3
12 | GGCACUGCUCACCACAGCGUGGUAAAGUGGCUGUGGCUAGACUGCC [G5C A6U A12C C23U] | 0
13 | GGCAGAGCUCAACACAGCGUGGCAAAGUGGCUCUUCGUAGACUGCC [G33C G35U G36C C37G] | 0.04
14 | GGCAUAGCUCAACGCAGCAUGGCAAAGUGGCUGUGGCUAGACUGCC [G5U A14G G19A] | 0.06
15 | GGCAGAGCUCAACACAGCGCGGCAAAGUGGCUGUGGCAAGACGGCC [U20C U38A U43G] | 0.01
16 | GGCAGAGCUCACCACAGCGUGGCAAAGUGCAUGUGGCUAGACUGUG [A12C G30C C31A C45U C46G] | 0.01
17 | GGCAGAGCUCAACAUAGCUUGGCAAAGUGGCCAUGGCUAGACUGCC [C15U G19U U32C G33A] | 0.18
18 | GGUCGAGCUCAAUACAGCGUGGCAAAGUGGCUGUGGCUAGACUGCC [C3U A4C C13U] | 0.09
19 | GGCAGAGCUAAACACAGCGUGUCUAAGUGGCUGUUGCUAGACUGCC [C10A G22U A24U G35U] | 0.01

Row | Variant | self-cleavage
20 | GGCAGAGCUCAACACAGGGUGGCAAUGAGGCUGUGGCUAGACUGCC [C18G A26U U28A] | 1.46
21 | GGCAGAGCUCUACACAGCGUGGCAAAGUGGCUGUGGCUAGACGGAA [A11U U43G C45A C46A] | 0
22 | GGCAGAGCUCAACACAGGGUGGCAAAGUGGCUUUGGCUAGACUGCG [C18G G33U C46G] | 0.08
23 | GGCAUAGCUCAACACAUCGUGGCAAAUUGCCUGUGGCUAGACUGCC [G5U G17U G27U G30C] | 0.02
24 | GGCAGAGCUCUACAAAGCGUGGCAAAGUGGCAGUGGCUAGACUGCC [A11U C15A U32A] | 0.01
25 | GGCAGAGCACAACACAGCGUGGCAAAGUGACUGCGGCUUGACUCAC [U9A G30A U34C A39U G44C C45A] | 0.03
26 | GGCAUAGCUCAACACAACGUGGCAAAUUGGCUGUGGCGAGACUGCC [G5U G17A G27U U38G] | 0.01
27 | GGCCGAGCUCAACAUAGCGUGGCAAAAUGGCUGUGGCUAGACUGCC [A4C C15U G27A] | 0.03
28 | GGCCUAGCUUAAAACAGCGUGGCAAUGUGGCUGUAGCUAGACUGCC [A4C G5U C10U C13A A26U G35A] | 0.02
29 | GGCAGAGCUCAACACUGCAAGGCGAAGUGGCUGAGGCUAGUCUGGC [A16U G19A U20A A24G U34A A41U C45G] | 0.03
30 | GGCAGAGCUCAAUACAGGGUGGUAAAGUGGCUGUGGUUAGACUGCG [C13U C18G C23U C37U C46G] | 0.02
31 | GGCUGAGCUCAAGACAACGUGGCAGAGUGGCUGUGGCUAGACUGCC [A4U C13G G17A A25G] | 0.04
32 | GGCAGAGCUCAACACAGCAUGGCAAGGUGGCUGUUGCUAGACUGCC [G19A A26G G35U] | 0.02
33 | UGCAGGUCUUAACACAGCGUGACAAACUGGCUGUGACUAGACUGCC [G1U A6G G7U C10U G22A G27C G36A] | 0.04
34 | GGCAGAGCUCAACAGAGAGUGCCAAAGUGGCUAUGGCUAGUCUCCC [C15G C18A G22C G33A A41U G44C] | 0
35 | GGCAUAGCUCAACACAGCGUGGCAAAGUGGCGGUGGCUAGAGUGCC [G5U U32G C42G] | 0
36 | GGCAGAGCUCAACACAGCGUGGCCAAGAGCUUGUGGCUAGACUGCC [A24C U28A G30C C31U] | 0.06
37 | GGCAGAGCUCAGCACAGCGUGGCUAAGUGGCUGUGGCUAUCCUGCC [A12G A24U G40U A41C] | 0.12
38 | GGCAGAGCUUAAGACAGCGUGGCAAAGUGACUGUGGCUAGACUGCC [C10U C13G G30A] | 0.07

Row | Variant | self-cleavage
39 | GGCAGAGCUCAAAACAGCGUGGCAAAGUGGCUGUUGCUAGACUGCA [C13A G35U C46A] | 1.19
40 | GUCAUAGCUCAACACAGCGUUGCAAAGUGGCUGUUGCUAGACUGCC [G2U G5U G21U G35U] | 0.09
41 | GGCAGAGUUCAACACUGCGCGGCAAAGUGGCUGCGGCUAGAUUGCC [C8U A16U U20C U34C C42U] | 0.12
42 | GGUAGAGCUCAACACAGCGUGGCAAAGUUGCUGUGGCUAGAUUGCC [C3U G29U C42U] | 0.31
43 | GGCAGAGCUCACCACAGCGCGGCAAAGUGGCUGUGCCUAGACUGCC [A12C U20C G36C] | 0.03
44 | GGAAGAGCACAACACGGCGUGGCAAAGUGGCUGUGGCCAUACUGCC [C3A U9A A16G U38C G40U] | 0.13
45 | GGCAUAGCUCAACACAGCGGGGCAAAGUGGCUGUUGCUAGACUGCC [G5U U20G G35U] | 0.07
46 | GGCAAAGCUCAACACAGUGUGGCAAAGUGGCUGUGGCCAGACUGCC [G5A C18U U38C] | 0.07
47 | GGCAGAGCACAACACAGCGUGGCAAAGUUGCUGUGGCAACACUGCC [U9A G29U U38A G40C] | 0.03
48 | GGCAGAGAUUAACACAGCGUGGCAAAGUGGCUGUGUCUAGACUGCC [C8A C10U G36U] | 0.02
49 | GGCAGUGCUCAACACUUCGUGGCAAAGUGGCUGAAGAUAGACUGCC [A6U A16U G17U U34A G35A C37A] | 0.37
50 | GGCCGAGCUCAACACAGCUUAGCAAAGUUGCUGUGGCUAGACUGCU [A4C G19U G21A G29U C46U] | 0.28
51 | GGCAGAGCUCAACACAACGUGGCAAUGUGGCUGUGGCUAUAAUGCC [G17A A26U G40U C42A] | 0.11
52 | GGCAGAGCUCCACACAGCGUGGCUAAGUGGCUGUGGCUAGACUCCC [A11C A24U G44C] | 0.03
53 | GGCAGAGCUCUACACGGCGUGGUAAAGUGGGUGUGGCUAGAGUGCC [A11U A16G C23U C31G C42G] | 0
54 | GGCCGAGCUCAACACAGCGUGACAAAGUGCCUGGGUCUAGAAUUCU [A4C G22A G30C U34G G36U C42A G44U C46U] | 0.02
55 | GGCAGAGCUCAACACAACGUGGCAAAGUAGCUGUGGCUAGACUGCG [G17A G29A C46G] | 0.07
56 | GGCAGAGCUCAACACAGCGUGGCAUAGUGGCUGUGGCUAGGCGGCC [A25U A41G U43G] | 0.04

— the RNAGym collection of RNA variant scans (doi:10.7554/elife.90254)
